Enrichment ratio data for 153 variants are collected here from a collection of fitness landscapes (doi:10.1126/science.1257360).

B1: PhoQ; a variant is named by its letters at X, in order, P23837 (parent)
chain: MKKLLRLFFPLSLRVRFLLATAAVVLVLSLAYGMVALIGYSVSFDKTTFRLLRGESNLFYTLAKWENNKLHVELPENIDKQSPTMTLIYDENGQLLWAQRDVPWLMKMIQPDWLKSNGFHEIEADVNDTSLLLSGDHSIQQQLQEVREDDDDAEMTHSVAVNVYPATSRMPKLTIVVVDTIPVELKSSYMVWSWFIYVLSANLLLVIPLLWVAAWWSLRPIEALAKEVRELEEHNRELLNPATTRELTSLVRNLNRLLKSERERYDKYRTTLTDLTHSLKTPLXXLQXXLRSLRSEKMSVSDAEPVMLEQISRISQQIGYYLHRASMRGGTLLSRELHPVAPLLDNLTSALNKVYQRKGVNISLDISPEISFVGEQNDFVEVMGNVLDNACKYCLEFVEISARQTDEHLYIVVEDDGPGIPLSKREVIFDRGQRVDTLRPGQGVGLAVAREITEQYEGKIVAGESMLGGARMEVIFGRQHSAPKDE

This is one part of the list.

The assay covers variants of B1. Nature of the assay: enrichment ratio after two sorts for PhoP signalling (ratio (wild type AVST 3.29)); higher = more functional. Conditions: with PhoP (E. coli).
As to LEDT, the enrichment ratio was at most 0.25.

In the case of YIRG, the enrichment ratio is at most 0.25.

In the case of YCEK, the enrichment ratio is at most 0.25.

Take DYVG: the enrichment ratio is at most 0.25.

Take PQVV: the enrichment ratio is at most 0.25.

Turning to TMIF, the enrichment ratio is at most 0.25.

Turning to TNLF, the enrichment ratio is 0.522.

As to RWSV, the enrichment ratio is at most 0.25.

Regarding YHFC, the enrichment ratio is at most 0.25.

Turning to RIIM, the enrichment ratio was at most 0.25.

On to SWVD, for which the enrichment ratio is at most 0.25.

Turning to HKCQ, the enrichment ratio was at most 0.25.

On to TMHF, for which the enrichment ratio amounted to 1.51.

On to DFWG, for which the enrichment ratio was at most 0.25.

Take YMIW: the enrichment ratio was at most 0.25.

With NRER, the enrichment ratio is at most 0.25.

As for YDCF, the enrichment ratio was found to be 0.265.

Consider LQHE, for which the enrichment ratio is at most 0.25.

VDRL: the enrichment ratio is at most 0.25.

For the variant ARYC, the enrichment ratio was at most 0.25.

Consider IRTA, for which the enrichment ratio was at most 0.25.

With VRCA, the enrichment ratio is at most 0.25.

Consider MGVN, for which the enrichment ratio was at most 0.25.

Regarding GYLE, the enrichment ratio was at most 0.25.

Take TFRG: the enrichment ratio was at most 0.25.

As for DNKR, the enrichment ratio was at most 0.25.

Consider LLGY, for which the enrichment ratio was at most 0.25.

On to IARP, for which the enrichment ratio is at most 0.25.

For FWEL, the enrichment ratio was at most 0.25.

Take VREA: the enrichment ratio is at most 0.25.

For the variant YNEW, the enrichment ratio is at most 0.25.

Take SYML: the enrichment ratio was 0.252.

Consider FYDA, for which the enrichment ratio was at most 0.25.

With NGEY, the enrichment ratio was at most 0.25.

NWYG: the enrichment ratio was at most 0.25.

Regarding LLIR, the enrichment ratio was at most 0.25.

GSPA: the enrichment ratio was at most 0.25.

As to KVLE, the enrichment ratio was at most 0.25.

For the variant MACP, the enrichment ratio was at most 0.25.

IEDQ: the enrichment ratio is at most 0.25.

For WLYH, the enrichment ratio is at most 0.25.

As for LLFV, the enrichment ratio was at most 0.25.

Take SWEG: the enrichment ratio is at most 0.25.

For RPWT, the enrichment ratio was at most 0.25.

In the case of HPFM, the enrichment ratio is at most 0.25.

Turning to FRRH, the enrichment ratio was at most 0.25.

With RRGR, the enrichment ratio was at most 0.25.

Turning to SHCC, the enrichment ratio was 6.79.

Take ILCW: the enrichment ratio is at most 0.25.

For PGFI, the enrichment ratio was at most 0.25.

Regarding YDRW, the enrichment ratio was at most 0.25.

Regarding DQNL, the enrichment ratio is at most 0.25.

As for ACMA, the enrichment ratio was 34.1.

As to IFPQ, the enrichment ratio was 1.04.

With WIVQ, the enrichment ratio is at most 0.25.

For DWGF, the enrichment ratio is at most 0.25.

For GCIL, the enrichment ratio is 10.2.

WWVI: the enrichment ratio was at most 0.25.

PPAP: the enrichment ratio was at most 0.25.

For the variant VWQY, the enrichment ratio was at most 0.25.

Take SRAQ: the enrichment ratio was at most 0.25.

As for EVQK, the enrichment ratio was at most 0.25.

As to HMQT, the enrichment ratio was at most 0.25.

Turning to FNVS, the enrichment ratio was at most 0.25.

For the variant PDHY, the enrichment ratio was at most 0.25.

For EARL, the enrichment ratio is at most 0.25.

With QEKG, the enrichment ratio was at most 0.25.

Turning to VELA, the enrichment ratio was at most 0.25.

As for QFLP, the enrichment ratio was at most 0.25.

In the case of HGTV, the enrichment ratio is at most 0.25.

With HPCT, the enrichment ratio is at most 0.25.

Regarding MGRA, the enrichment ratio was at most 0.25.

As to AHMD, the enrichment ratio was at most 0.25.

With RIVN, the enrichment ratio was at most 0.25.

As for SYNQ, the enrichment ratio is at most 0.25.

As to KVIW, the enrichment ratio is at most 0.25.

With VFRI, the enrichment ratio was at most 0.25.

Turning to IYGT, the enrichment ratio was at most 0.25.

Regarding DQAN, the enrichment ratio is at most 0.25.

Regarding SDLC, the enrichment ratio turned out to be 6.34.

TSYG: the enrichment ratio was 6.41.

In the case of FKRM, the enrichment ratio is at most 0.25.

Turning to QKIM, the enrichment ratio is at most 0.25.

Take QLRI: the enrichment ratio is at most 0.25.

With EMYF, the enrichment ratio is at most 0.25.

Regarding TEWI, the enrichment ratio is 4.93.

Consider TPKY, for which the enrichment ratio is at most 0.25.

As for RCGM, the enrichment ratio is at most 0.25.

With WPAG, the enrichment ratio is at most 0.25.

With TLQG, the enrichment ratio was found to be 11.8.

Turning to MHWQ, the enrichment ratio is at most 0.25.

As to VLIH, the enrichment ratio was at most 0.25.

Turning to SWWV, the enrichment ratio is at most 0.25.

On to ARHF, for which the enrichment ratio was at most 0.25.

On to AYYW, for which the enrichment ratio is at most 0.25.

Take IQWL: the enrichment ratio was at most 0.25.

In the case of LLHY, the enrichment ratio is at most 0.25.

As for YWHN, the enrichment ratio was at most 0.25.

As to TFCW, the enrichment ratio was at most 0.25.

As to ALVR, the enrichment ratio was at most 0.25.

For DRVV, the enrichment ratio was at most 0.25.

AHSL: the enrichment ratio worked out at 0.581.

GNVM: the enrichment ratio was determined as 22.8.

For the variant WQNH, the enrichment ratio was at most 0.25.

Regarding KFRR, the enrichment ratio is at most 0.25.

Regarding HDPK, the enrichment ratio was at most 0.25.

Regarding VDDV, the enrichment ratio is at most 0.25.

As for FKSL, the enrichment ratio was at most 0.25.

Turning to LEVG, the enrichment ratio was at most 0.25.

For DAKV, the enrichment ratio was at most 0.25.

Take GPMN: the enrichment ratio was at most 0.25.

For the variant AGSW, the enrichment ratio is at most 0.25.

As to FKLR, the enrichment ratio is at most 0.25.

In the case of MWLS, the enrichment ratio is at most 0.25.

On to KAWM, for which the enrichment ratio was at most 0.25.

Regarding AQTY, the enrichment ratio is 1.32.

Turning to VQCI, the enrichment ratio was at most 0.25.

Take QCRV: the enrichment ratio is at most 0.25.

As for HRAC, the enrichment ratio is at most 0.25.

YQRM: the enrichment ratio was at most 0.25.

Turning to KEVA, the enrichment ratio is at most 0.25.

For SQTI, the enrichment ratio was found to be 13.3.

On to YIYW, for which the enrichment ratio was at most 0.25.

On to HVGF, for which the enrichment ratio was at most 0.25.

Turning to HRFH, the enrichment ratio is at most 0.25.

VKED: the enrichment ratio was at most 0.25.

On to HQMS, for which the enrichment ratio is at most 0.25.

As to VHQE, the enrichment ratio was at most 0.25.

As to YEFK, the enrichment ratio was at most 0.25.

For the variant NVAV, the enrichment ratio was at most 0.25.

With RNHF, the enrichment ratio is at most 0.25.

Consider ALCS, for which the enrichment ratio is 10.8.

As to PDRH, the enrichment ratio is at most 0.25.

With TRKF, the enrichment ratio was at most 0.25.

For HIGR, the enrichment ratio was at most 0.25.

For the variant ADSH, the enrichment ratio was at most 0.25.

As for AEIH, the enrichment ratio amounted to 60.7.

As for HSEA, the enrichment ratio was at most 0.25.

In the case of AWNW, the enrichment ratio is at most 0.25.

For the variant PEAN, the enrichment ratio is at most 0.25.

Turning to AWDD, the enrichment ratio is at most 0.25.

On to HMST, for which the enrichment ratio is at most 0.25.

As for WWFL, the enrichment ratio is at most 0.25.

With FYKV, the enrichment ratio is at most 0.25.

Regarding TIGK, the enrichment ratio came out at 6.72.

FRTC: the enrichment ratio is at most 0.25.

For the variant KNVP, the enrichment ratio is at most 0.25.

Take KHHR: the enrichment ratio is at most 0.25.

For the variant HCAG, the enrichment ratio is at most 0.25.

Take RDVM: the enrichment ratio was at most 0.25.

On to HHPL, for which the enrichment ratio came to 0.388.

In the case of VLDM, the enrichment ratio is at most 0.25.

On to HSMT, for which the enrichment ratio was at most 0.25.
